Source: PMC13522591
Positions count from the first letter of the chain named. Results are given in words; binding and its absence hold for the method and conditions named. Binding seen in cells or lysates may run through a third protein. Some results given as binding are weak or reduced against the parent protein; the word gives no strength. Where a sequence is shown, tags or fusion partners need not be part of it.

Sequences of proteins named here, by UniProt entry; tags and fusion partners are left off.
UniProt Q86UR5: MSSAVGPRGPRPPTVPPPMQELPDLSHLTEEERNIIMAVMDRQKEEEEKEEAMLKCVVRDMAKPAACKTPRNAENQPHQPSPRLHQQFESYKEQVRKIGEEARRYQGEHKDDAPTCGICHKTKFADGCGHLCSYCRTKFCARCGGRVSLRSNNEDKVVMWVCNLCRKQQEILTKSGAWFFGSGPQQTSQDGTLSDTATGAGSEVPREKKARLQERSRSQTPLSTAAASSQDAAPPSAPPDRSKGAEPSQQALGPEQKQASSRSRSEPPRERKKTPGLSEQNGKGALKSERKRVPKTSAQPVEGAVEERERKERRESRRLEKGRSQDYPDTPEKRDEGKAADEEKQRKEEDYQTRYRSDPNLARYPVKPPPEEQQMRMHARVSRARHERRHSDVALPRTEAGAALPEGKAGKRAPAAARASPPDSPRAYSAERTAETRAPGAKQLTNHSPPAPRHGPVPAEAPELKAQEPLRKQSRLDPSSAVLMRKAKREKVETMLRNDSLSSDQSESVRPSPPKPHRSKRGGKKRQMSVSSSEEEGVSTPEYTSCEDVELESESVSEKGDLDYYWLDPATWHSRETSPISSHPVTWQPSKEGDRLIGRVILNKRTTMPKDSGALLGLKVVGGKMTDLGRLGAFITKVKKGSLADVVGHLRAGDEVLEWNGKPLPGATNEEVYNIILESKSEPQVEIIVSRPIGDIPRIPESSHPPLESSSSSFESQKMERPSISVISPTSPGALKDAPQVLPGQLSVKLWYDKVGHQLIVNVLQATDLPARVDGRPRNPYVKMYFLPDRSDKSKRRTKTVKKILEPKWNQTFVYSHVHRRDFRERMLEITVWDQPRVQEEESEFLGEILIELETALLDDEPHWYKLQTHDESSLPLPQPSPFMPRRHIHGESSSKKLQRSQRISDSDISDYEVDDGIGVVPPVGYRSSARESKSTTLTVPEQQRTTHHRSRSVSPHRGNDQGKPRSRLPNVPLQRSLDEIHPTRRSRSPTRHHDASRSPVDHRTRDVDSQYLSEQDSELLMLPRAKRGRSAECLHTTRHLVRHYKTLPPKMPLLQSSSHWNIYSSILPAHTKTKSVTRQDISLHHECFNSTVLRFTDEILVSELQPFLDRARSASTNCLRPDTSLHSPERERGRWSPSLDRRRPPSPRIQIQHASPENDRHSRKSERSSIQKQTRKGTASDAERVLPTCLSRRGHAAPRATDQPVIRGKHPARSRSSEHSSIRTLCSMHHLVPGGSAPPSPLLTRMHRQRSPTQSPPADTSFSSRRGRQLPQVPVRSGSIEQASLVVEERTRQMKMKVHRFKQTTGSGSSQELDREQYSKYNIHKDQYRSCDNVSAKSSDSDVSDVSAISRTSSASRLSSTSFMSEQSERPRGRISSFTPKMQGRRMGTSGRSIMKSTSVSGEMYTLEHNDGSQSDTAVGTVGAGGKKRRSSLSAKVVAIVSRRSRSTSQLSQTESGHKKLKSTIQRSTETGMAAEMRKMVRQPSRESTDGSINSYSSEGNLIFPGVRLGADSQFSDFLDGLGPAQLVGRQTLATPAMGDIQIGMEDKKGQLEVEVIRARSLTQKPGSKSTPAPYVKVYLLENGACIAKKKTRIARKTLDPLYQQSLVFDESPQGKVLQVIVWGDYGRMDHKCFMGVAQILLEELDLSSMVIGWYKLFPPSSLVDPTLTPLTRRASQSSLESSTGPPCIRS

How the values were obtained:
Test in all cases: co-IP; HEK293 cells co-transfected with HA-RAB3A constructs and myc-flag-RIM1; lysates (20 mM Tris-HCl pH 7.5, 150 mM NaCl, 1 mM EDTA, 0.3% Triton-X100, 10% glycerol) incubated with magnetic anti-HA beads for 1 h at 4 °C; input and IP blotted for Flag and HA
[1] = biological target: T1, HA-tagged RAB3A Q81L (mimicking the GTP-bound state) (UniProt P20336)
T1 sequence: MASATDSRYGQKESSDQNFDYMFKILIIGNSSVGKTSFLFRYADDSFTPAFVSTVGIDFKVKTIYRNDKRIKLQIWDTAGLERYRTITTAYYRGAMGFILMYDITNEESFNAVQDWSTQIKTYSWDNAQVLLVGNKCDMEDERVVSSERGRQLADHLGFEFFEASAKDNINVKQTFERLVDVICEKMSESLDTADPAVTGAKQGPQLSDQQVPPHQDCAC

[2] = biological target: T2, HA-tagged RAB3A T86A (phospho-deficient) (UniProt P20336)
T2 sequence: T1 sequence with L81Q, T86A

[3] = biological target: T3, HA-tagged RAB3A T36N (mimicking the GDP-bound state) (UniProt P20336)
T3 sequence: T1 sequence with T36N, L81Q

[4] = biological target: T4, HA-tagged RAB3A wild type (UniProt P20336)
T4 sequence: T1 sequence with L81Q

[5] = biological target: T5, HA-tagged RAB3A T86E (phospho-mimic) (UniProt P20336)
T5 sequence: T1 sequence with L81Q, T86E

binding [1]: binds
binding [2]: binds
binding [3]: no binding
binding [4]: binds
binding [5]: binds
Substance: myc-flag-RIM1 (from UniProt Q86UR5 1-1692)
